# Measured values: publication PMC9911399, “Two distinct binding modes provide the RNA-binding protein RbFox with extraordinary sequence specificity”
# Numbering of substitutions follows the chain as printed; changes in the protein carry UniProt numbers. The list shows a part of the results.
# T1: RBFOX1 RRM RbFoxmut (Fox-RRM*) (Homo sapiens, UniProt Q9NWB1 109-208, R118D;E147R;N151S;E152T)
# T1 sequence: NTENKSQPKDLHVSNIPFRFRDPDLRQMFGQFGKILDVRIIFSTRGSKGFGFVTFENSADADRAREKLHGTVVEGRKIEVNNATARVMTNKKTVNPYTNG
# B1: UGCACUC (DNA:RNA)
# RNA: GGGAGACCGGAAUUCAGAUUGUCCUGCACUCUUAAAUCCCGUCGUAGCCACCA
# DNA 1: CAATCTGAATTCCGGTCTCCC
# DNA 2: TGGTGGCTACGACGGGATT
# B2: ACAAUUC (DNA:RNA)
# RNA: B1 RNA with U25A, G26C, C27A, C29U
# DNA 1: CAATCTGAATTCCGGTCTCCC
# DNA 2: TGGTGGCTACGACGGGATT
# B3: GAAAGGU (DNA:RNA)
# RNA: B1 RNA with U25G, G26A, C27A, C29G, U30G, C31U
# DNA 1: CAATCTGAATTCCGGTCTCCC
# DNA 2: TGGTGGCTACGACGGGATT
# B4: GUUCAUG (DNA:RNA)
# RNA: B1 RNA with U25G, G26U, C27U, A28C, C29A, C31G
# DNA 1: CAATCTGAATTCCGGTCTCCC
# DNA 2: TGGTGGCTACGACGGGATT
# B5: UGAUCAG (DNA:RNA)
# RNA: B1 RNA with C27A, A28U, U30A, C31G
# DNA 1: CAATCTGAATTCCGGTCTCCC
# DNA 2: TGGTGGCTACGACGGGATT
# B6: GUUCCGG (DNA:RNA)
# RNA: B1 RNA with U25G, G26U, C27U, A28C, U30G, C31G
# DNA 1: CAATCTGAATTCCGGTCTCCC
# DNA 2: TGGTGGCTACGACGGGATT
# B7: UUAAGUC (DNA:RNA)
# RNA: B1 RNA with G26U, C27A, C29G
# DNA 1: CAATCTGAATTCCGGTCTCCC
# DNA 2: TGGTGGCTACGACGGGATT
# B8: UACCUGU (DNA:RNA)
# RNA: B1 RNA with G26A, A28C, C29U, U30G, C31U
# DNA 1: CAATCTGAATTCCGGTCTCCC
# DNA 2: TGGTGGCTACGACGGGATT
# B9: GAACUAU (DNA:RNA)
# RNA: GGGAGACCGGAAUUCAGAUUGUCCGAACUAUUUAAAUCCCGUCGUAGCCACCA
# DNA 1: CAATCTGAATTCCGGTCTCCC
# DNA 2: TGGTGGCTACGACGGGATT
# B10: UGUUGUA (DNA:RNA)
# RNA: B1 RNA with C27U, A28U, C29G, C31A
# DNA 1: CAATCTGAATTCCGGTCTCCC
# DNA 2: TGGTGGCTACGACGGGATT
# B11: AAGCUAA (DNA:RNA)
# RNA: B9 RNA with G25A, A27G, U31A
# DNA 1: CAATCTGAATTCCGGTCTCCC
# DNA 2: TGGTGGCTACGACGGGATT
# B12: AUGAUCU (DNA:RNA)
# RNA: B9 RNA with G25A, A26U, A27G, C28A, A30C
# DNA 1: CAATCTGAATTCCGGTCTCCC
# DNA 2: TGGTGGCTACGACGGGATT
# B13: GGCGCGC (DNA:RNA)
# RNA: B1 RNA with U25G, A28G, U30G
# DNA 1: CAATCTGAATTCCGGTCTCCC
# DNA 2: TGGTGGCTACGACGGGATT
# B14: GGAGCUC (DNA:RNA)
# RNA: B1 RNA with U25G, C27A, A28G
# DNA 1: CAATCTGAATTCCGGTCTCCC
# DNA 2: TGGTGGCTACGACGGGATT
# B15: UAUCCUG (DNA:RNA)
# RNA: B1 RNA with G26A, C27U, A28C, C31G
# DNA 1: CAATCTGAATTCCGGTCTCCC
# DNA 2: TGGTGGCTACGACGGGATT
# B16: GGUCCGA (DNA:RNA)
# RNA: B9 RNA with A26G, A27U, U29C, A30G, U31A
# DNA 1: CAATCTGAATTCCGGTCTCCC
# DNA 2: TGGTGGCTACGACGGGATT
# B17: ACGUCGG (DNA:RNA)
# RNA: B1 RNA with U25A, G26C, C27G, A28U, U30G, C31G
# DNA 1: CAATCTGAATTCCGGTCTCCC
# DNA 2: TGGTGGCTACGACGGGATT
# B18: UGUUACC (DNA:RNA)
# RNA: B1 RNA with C27U, A28U, C29A, U30C
# DNA 1: CAATCTGAATTCCGGTCTCCC
# DNA 2: TGGTGGCTACGACGGGATT
# B19: GCCACUU (DNA:RNA)
# RNA: B1 RNA with U25G, G26C, C31U
# DNA 1: CAATCTGAATTCCGGTCTCCC
# DNA 2: TGGTGGCTACGACGGGATT
# B20: GUUUGUU (DNA:RNA)
# RNA: B9 RNA with A26U, A27U, C28U, U29G, A30U
# DNA 1: CAATCTGAATTCCGGTCTCCC
# DNA 2: TGGTGGCTACGACGGGATT
# B21: GCCCGGU (DNA:RNA)
# RNA: B9 RNA with A26C, A27C, U29G, A30G
# DNA 1: CAATCTGAATTCCGGTCTCCC
# DNA 2: TGGTGGCTACGACGGGATT
# B22: CGGCCCC (DNA:RNA)
# RNA: B1 RNA with U25C, C27G, A28C, U30C
# DNA 1: CAATCTGAATTCCGGTCTCCC
# DNA 2: TGGTGGCTACGACGGGATT
# B23: UUGGCAG (DNA:RNA)
# RNA: B1 RNA with G26U, C27G, A28G, U30A, C31G
# DNA 1: CAATCTGAATTCCGGTCTCCC
# DNA 2: TGGTGGCTACGACGGGATT
# B24: AGUCAGA (DNA:RNA)
# RNA: B9 RNA with G25A, A26G, A27U, U29A, A30G, U31A
# DNA 1: CAATCTGAATTCCGGTCTCCC
# DNA 2: TGGTGGCTACGACGGGATT
# B25: CGGGAUC (DNA:RNA)
# RNA: B1 RNA with U25C, C27G, A28G, C29A
# DNA 1: CAATCTGAATTCCGGTCTCCC
# DNA 2: TGGTGGCTACGACGGGATT
# B26: AAACAUA (DNA:RNA)
# RNA: B9 RNA with G25A, U29A, A30U, U31A
# DNA 1: CAATCTGAATTCCGGTCTCCC
# DNA 2: TGGTGGCTACGACGGGATT
# B27: ACGGUUG (DNA:RNA)
# RNA: B9 RNA with G25A, A26C, A27G, C28G, A30U, U31G
# DNA 1: CAATCTGAATTCCGGTCTCCC
# DNA 2: TGGTGGCTACGACGGGATT
# B28: GUAGCAU (DNA:RNA)
# RNA: B9 RNA with A26U, C28G, U29C
# DNA 1: CAATCTGAATTCCGGTCTCCC
# DNA 2: TGGTGGCTACGACGGGATT
# B29: GCUGCAA (DNA:RNA)
# RNA: B9 RNA with A26C, A27U, C28G, U29C, U31A
# DNA 1: CAATCTGAATTCCGGTCTCCC
# DNA 2: TGGTGGCTACGACGGGATT
# B30: GAUCAAU (DNA:RNA)
# RNA: B9 RNA with A27U, U29A
# DNA 1: CAATCTGAATTCCGGTCTCCC
# DNA 2: TGGTGGCTACGACGGGATT
# B31: GCAAAUA (DNA:RNA)
# RNA: B9 RNA with A26C, C28A, U29A, A30U, U31A
# DNA 1: CAATCTGAATTCCGGTCTCCC
# DNA 2: TGGTGGCTACGACGGGATT
# Biological target: T1, RBFOX1 RRM RbFoxmut (Fox-RRM*)
# Assay: EMSA; HiTS-Eq, 1 nM pool, 10 min; buffer printed only for the single-RNA assays: 10 mM Tris pH 7.5, 150 mM NaCl, 3.4 mM EDTA, 0.001% NP-40, 30 C
# Details: tags: His6 N-terminal (pET28a); label: 5' 32P
# Procedure, shortened: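 A pool of RNA with 7 randomized nucleotides, 5′-radiolabelled and with DNA-annealed flanks, was equilibrated at 1 nM for 10 min in 50 µL with purified RbFox RRM, wild type or mutant, across increasing protein concentrations. Free RNA was separated by 8% native PAGE, excised, reverse-transcribed, barcoded by PCR and sequenced. Relative association constants were obtained from read-count changes of each RNA species versus the control reaction and normalised to the cognate motif.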
row,Binder,binding signal
1,B1,0.0834 KA relative to UGCAUGU
2,B2,0.0869 KA relative to UGCAUGU
3,B3,0.0507 KA relative to UGCAUGU
4,B4,0.126 KA relative to UGCAUGU
5,B5,0.0881 KA relative to UGCAUGU
6,B6,0.0658 KA relative to UGCAUGU
7,B7,0.0748 KA relative to UGCAUGU
8,B8,0.113 KA relative to UGCAUGU
9,B9,0.0684 KA relative to UGCAUGU
10,B10,0.307 KA relative to UGCAUGU
11,B11,0.124 KA relative to UGCAUGU
12,B12,0.0715 KA relative to UGCAUGU
13,B13,0.0946 KA relative to UGCAUGU
14,B14,0.0628 KA relative to UGCAUGU
15,B15,0.101 KA relative to UGCAUGU
16,B16,0.145 KA relative to UGCAUGU

row,Binder,binding signal
1,B17,0.117 KA relative to UGCAUGU
2,B18,0.145 KA relative to UGCAUGU
3,B19,0.0643 KA relative to UGCAUGU
4,B20,0.259 KA relative to UGCAUGU
5,B21,0.104 KA relative to UGCAUGU
6,B22,0.0599 KA relative to UGCAUGU
7,B23,0.106 KA relative to UGCAUGU
8,B24,0.0906 KA relative to UGCAUGU
9,B25,0.141 KA relative to UGCAUGU
10,B26,0.0793 KA relative to UGCAUGU
11,B27,0.208 KA relative to UGCAUGU
12,B28,0.127 KA relative to UGCAUGU
13,B29,0.0831 KA relative to UGCAUGU
14,B30,0.0528 KA relative to UGCAUGU
15,B31,0.1 KA relative to UGCAUGU
